# Data as given in the supplement of paper PMC8728848.
# This is one part of the list.
# B1: Gal 3C (Homo sapiens), P17931 (protein)
# chain: YGAPAGPLIVPYNLPLPGGVVPRMLITILGTVKPNANRIALDFQRGNDVAFHFNPRFNENNRRVIVCNTKLDNNWGREERQSVFPFESGKPFKIQVLVEPDHFKVAVNDAHLLQYNHRVKKLNEISKLGISGDIDLTSASYTMI
# Tests used:
# Assay in all cases: glycan array binding signal (z-score within array); higher = stronger binding
# Conditions in all cases: glycan notation: IUPAC condensed, linker removed
# Gal6S(b1-4)Glc = target: Gal6S(b1-4)Glc
# Procedure, shortened: (§1)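 Columns mapping to the same glycan were averaged after glycan names were converted to IUPAC-condensed notation. The data come from 3228 arrays in the Consortium for Functional Glycomics database, limited to those with an available protein sequence. Binding is reported as a within-array Z-score averaged across arrays of one protein sequence and across linkers.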
# Gal6S(b1-4)Glc6S = target: Gal6S(b1-4)Glc6S
# Procedure, shortened: as §1
# Gal6S(b1-4)GlcNAc = target: Gal6S(b1-4)GlcNAc
# Procedure, shortened: as §1
# Gal6S(b1-4)GlcNAc6S = target: Gal6S(b1-4)GlcNAc6S
# Procedure, shortened: as §1
# GalNAc(a1-3)Gal = target: GalNAc(a1-3)Gal
# Procedure, shortened: as §1
# GalNAc(a1-3)GalNAc = target: GalNAc(a1-3)GalNAc
# Procedure, shortened: as §1
# [1] = target: GalNAc(a1-3)GalNAc(b1-3)Gal(a1-4)Gal(b1-4)Glc
# Procedure, shortened: as §1
# [2] = target: GalNAc(a1-3)GalNAc(b1-3)Gal(a1-4)Gal(b1-4)GlcNAc
# Procedure, shortened: as §1
# GalNAc(b1-3)Gal = target: GalNAc(b1-3)Gal
# Procedure, shortened: as §1
# [3] = target: GalNAc(b1-3)Gal(a1-4)Gal(b1-4)GlcNAc
# Procedure, shortened: as §1
# [4] = target: GalNAc(b1-3)Gal(a1-4)Gal(b1-4)GlcNAc(b1-3)Gal(b1-4)Glc
# Procedure, shortened: as §1
# [5] = target: GalNAc(b1-3)Gal(a1-6)Gal(b1-4)Glc
# Procedure, shortened: as §1
# GalNAc(b1-3)GalNAc = target: GalNAc(b1-3)GalNAc
# Procedure, shortened: as §1
# GalNAc(b1-3)GlcNAc = target: GalNAc(b1-3)GlcNAc
# Procedure, shortened: as §1
# GalNAc(b1-4)Gal(b1-4)Glc = target: GalNAc(b1-4)Gal(b1-4)Glc
# Procedure, shortened: as §1
# GalNAc(b1-4)GlcNAc = target: GalNAc(b1-4)GlcNAc
# Procedure, shortened: as §1
# [6] = target: GalNAc(b1-4)GlcNAc(b1-2)Man
# Procedure, shortened: as §1
# [7] = target: GalNAc(b1-4)GlcNAc(b1-2)Man(a1-3)[GalNAc(b1-4)GlcNAc(b1-2)Man(a1-6)]Man(b1-4)GlcNAc(b1-4)GlcNAc
# Procedure, shortened: as §1
# [8] = target: GalNAc(b1-4)GlcNAc(b1-3)GalNAc(b1-4)GlcNAc
# Procedure, shortened: as §1
# GalNAc(b1-4)GlcNAc6S = target: GalNAc(b1-4)GlcNAc6S
# Procedure, shortened: as §1
# GalNAc(b1-6)GalNAc = target: GalNAc(b1-6)GalNAc
# Procedure, shortened: as §1
# GalNAc3S(b1-4)GlcNAc = target: GalNAc3S(b1-4)GlcNAc
# Procedure, shortened: as §1
# GalNAc3S(b1-4)GlcNAc3S = target: GalNAc3S(b1-4)GlcNAc3S
# Procedure, shortened: as §1
# [9] = target: GalNAc3S(b1-4)[Fuc(a1-3)]GlcNAc
# Procedure, shortened: as §1
# GalNAc4S6S(b1-4)GlcNAc = target: GalNAc4S6S(b1-4)GlcNAc
# Procedure, shortened: as §1
# GalNAc6S(b1-4)GlcNAc = target: GalNAc6S(b1-4)GlcNAc
# Procedure, shortened: as §1
# Glc(a1-4)Glc = target: Glc(a1-4)Glc
# Procedure, shortened: as §1
# [10] = target: Glc(a1-4)Glc(a1-4)Glc(a1-4)Glc
# Procedure, shortened: as §1
# Glc(a1-6)Glc(a1-6)Glc = target: Glc(a1-6)Glc(a1-6)Glc
# Procedure, shortened: as §1
# [11] = target: Glc(a1-6)Glc(a1-6)Glc(a1-6)Glc
# Procedure, shortened: as §1
# Glc(b1-4)Glc = target: Glc(b1-4)Glc
# Procedure, shortened: as §1
# Glc(b1-6)Glc = target: Glc(b1-6)Glc
# Procedure, shortened: as §1
# GlcA(b1-3)Gal = target: GlcA(b1-3)Gal
# Procedure, shortened: as §1
# GlcA(b1-3)GlcNAc = target: GlcA(b1-3)GlcNAc
# Procedure, shortened: as §1
# GlcA(b1-6)Gal = target: GlcA(b1-6)Gal
# Procedure, shortened: as §1
# [12] = target: GlcA3S(b1-3)Gal(b1-4)GlcNAc(b1-2)Man
# Procedure, shortened: as §1
# [13] = target: GlcA3S(b1-3)Gal(b1-4)GlcNAc(b1-3)Gal(b1-4)Glc
# Procedure, shortened: as §1
# [14] = target: GlcNAc(a1-3)Gal(b1-4)GlcNAc
# Procedure, shortened: as §1
# [15] = target: GlcNAc(a1-4)Gal(b1-3)GlcNAc
# Procedure, shortened: as §1
# [16] = target: GlcNAc(a1-4)Gal(b1-4)GalNAc
# Procedure, shortened: as §1
# [17] = target: GlcNAc(a1-4)Gal(b1-4)GlcNAc
# Procedure, shortened: as §1
# [18] = target: GlcNAc(a1-4)Gal(b1-4)GlcNAc(b1-3)Gal(b1-4)Glc
# Procedure, shortened: as §1
# [19] = target: GlcNAc(a1-4)Gal(b1-4)GlcNAc(b1-3)Gal(b1-4)GlcNAc
# Procedure, shortened: as §1
# [20] = target: GlcNAc(a1-4)Gal(b1-4)GlcNAc(b1-3)Gal(b1-4)GlcNAc(b1-3)Gal(b1-4)GlcNAc
# Procedure, shortened: as §1
# [21] = target: GlcNAc(a1-4)Gal(b1-4)GlcNAc(b1-3)Gal(b1-4)[Fuc(a1-3)]GlcNAc(b1-3)Gal(b1-4)[Fuc(a1-3)]GlcNAc
# Procedure, shortened: as §1
binder,measurement,setting,value
B1,glycan array binding signal (z-score),Gal6S(b1-4)Glc,-0.279
same,glycan array binding signal (z-score),Gal6S(b1-4)Glc6S,-0.271
same,glycan array binding signal (z-score),Gal6S(b1-4)GlcNAc,-0.339
same,glycan array binding signal (z-score),Gal6S(b1-4)GlcNAc6S,-0.32
same,glycan array binding signal (z-score),GalNAc(a1-3)Gal,-0.331
same,glycan array binding signal (z-score),GalNAc(a1-3)GalNAc,-0.235
same,glycan array binding signal (z-score),[1],-0.269
same,glycan array binding signal (z-score),[2],-0.239
same,glycan array binding signal (z-score),GalNAc(b1-3)Gal,-0.311
same,glycan array binding signal (z-score),[3],-0.184
same,glycan array binding signal (z-score),[4],-0.275
same,glycan array binding signal (z-score),[5],-0.332
same,glycan array binding signal (z-score),GalNAc(b1-3)GalNAc,-0.191
same,glycan array binding signal (z-score),GalNAc(b1-3)GlcNAc,-0.319
same,glycan array binding signal (z-score),GalNAc(b1-4)Gal(b1-4)Glc,-0.257
same,glycan array binding signal (z-score),GalNAc(b1-4)GlcNAc,-0.217
same,glycan array binding signal (z-score),[6],-0.274
same,glycan array binding signal (z-score),[7],-0.103
same,glycan array binding signal (z-score),[8],1.03
same,glycan array binding signal (z-score),GalNAc(b1-4)GlcNAc6S,-0.197
same,glycan array binding signal (z-score),GalNAc(b1-6)GalNAc,-0.248
same,glycan array binding signal (z-score),GalNAc3S(b1-4)GlcNAc,-0.294
same,glycan array binding signal (z-score),GalNAc3S(b1-4)GlcNAc3S,-0.315
same,glycan array binding signal (z-score),[9],-0.329
same,glycan array binding signal (z-score),GalNAc4S6S(b1-4)GlcNAc,-0.337
same,glycan array binding signal (z-score),GalNAc6S(b1-4)GlcNAc,-0.364
same,glycan array binding signal (z-score),Glc(a1-4)Glc,-0.324
same,glycan array binding signal (z-score),[10],-0.255
same,glycan array binding signal (z-score),Glc(a1-6)Glc(a1-6)Glc,-0.328
same,glycan array binding signal (z-score),[11],-0.248
same,glycan array binding signal (z-score),Glc(b1-4)Glc,-0.331
same,glycan array binding signal (z-score),Glc(b1-6)Glc,-0.307
same,glycan array binding signal (z-score),GlcA(b1-3)Gal,-0.345
same,glycan array binding signal (z-score),GlcA(b1-3)GlcNAc,-0.291
same,glycan array binding signal (z-score),GlcA(b1-6)Gal,-0.282
same,glycan array binding signal (z-score),[12],-0.265
same,glycan array binding signal (z-score),[13],0.119
same,glycan array binding signal (z-score),[14],-0.317
same,glycan array binding signal (z-score),[15],-0.261
same,glycan array binding signal (z-score),[16],-0.282
same,glycan array binding signal (z-score),[17],-0.298
same,glycan array binding signal (z-score),[18],-0.215
same,glycan array binding signal (z-score),[19],-0.2
same,glycan array binding signal (z-score),[20],1.33
same,glycan array binding signal (z-score),[21],-0.219
